Source: the supplement of paper PMC5919970
Structures can show the parent of a compound that is named as a salt. Whole data set: some 2,000 compounds, median “fractional viability relative to vehicle” near 0.92, cut for the lowest 2% near 0.11. The list shows a part of the results.

Tested on: TYKNU
Assay: fractional viability relative to vehicle; TYKNU is a high-grade serous ovarian cancer line; higher = less growth inhibition
Conditions: 72 h, genotype: OPA1 knockout (sgOPA1 #2)
Outline: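 Drug treatment lasted 72 h, with cells grown at 37 °C in 5% CO2 in RPMI 1640 supplemented with 10% FBS. Beforehand, TYKNU control cells or their lentiCRISPRv2 knockout derivatives had been seeded at 500 cells per well into drug-stamped 384-well plates carrying a ~2100-compound library at 2 or 10 μM, in duplicate. Viability came from Cell Titer Glo luminescence, with averaged duplicate treatment wells normalised to duplicate control wells in the same plate position.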

CNC(=O)c1nn(C)c2c1C(C)(C)Cc1cnc(Nc3ccc(N4CCN(C)CC4)cc3)nc1-2
fractional viability (2uM): 0.882 | fractional viability (10uM): 0.568

CC(C)(O)CC[C@@H](O)[C@](C)(O)[C@H]1CC[C@@]2(O)C3=CC(=O)[C@@H]4C[C@@H](O)[C@@H](O)C[C@]4(C)[C@H]3CC[C@]12C [20-Hydroxyecdysone]
fractional viability (2uM): 0.814 | fractional viability (10uM): 0.956

COc1cc(C)c(/C=C/C(C)=C/C=C/C(C)=C/C(=O)O)c(C)c1C [Acitretin]
fractional viability (2uM): 1.02 | fractional viability (10uM): 0.73

C[C@@H]1COCCN1c1cc(C2([S@](C)(=N)=O)CC2)nc(-c2cc[nH]c3nccc2-3)n1
fractional viability (2uM): 0.396 | fractional viability (10uM): 0.516

CC(C)(F)C[C@H](N[C@@H](c1ccc(-c2ccc(S(C)(=O)=O)cc2)cc1)C(F)(F)F)C(=O)NC1(C#N)CC1 [Odanacatib (MK-0822)]
fractional viability (2uM): 1.09 | fractional viability (10uM): 1.01

COc1cc(/C=C/C(=O)O)ccc1O [Ferulic Acid]
fractional viability (2uM): 1.05 | fractional viability (10uM): 0.837

C[N+]1(C)CCC(=C(c2ccccc2)c2ccccc2)CC1 [Diphemanil Methylsulfate]
fractional viability (2uM): 0.901 | fractional viability (10uM): 0.95

NS(=O)(=O)c1cc2c(cc1Cl)NCNS2(=O)=O [Hydrochlorothiazide]
fractional viability (2uM): 1.19 | fractional viability (10uM): 1.12

O=C1C(=O)N(Cc2ccc(Cl)c(Cl)c2)c2ccccc21 [Apoptosis Activator 2]
fractional viability (2uM): 0.461 | fractional viability (10uM): 0.287

O=C(NC1CCOCC1)c1ccc(-c2cc(-c3c[nH]nc3-c3ccccn3)ccn2)cc1
fractional viability (2uM): 1.21 | fractional viability (10uM): 1.45

CN(C)CCc1c[nH]c2ccc(C[C@H]3COC(=O)N3)cc12 [Zolmitriptan]
fractional viability (2uM): 1.1 | fractional viability (10uM): 0.856

O=C1c2cccc(O)c2C(=O)c2c(O)cc(CO)cc21 [Aloe-emodin]
fractional viability (2uM): 0.957 | fractional viability (10uM): 0.96

CN(C)CCC=C1c2ccccc2C=Cc2ccccc21 [Cyclobenzaprine HCl]
fractional viability (2uM): 0.883 | fractional viability (10uM): 0.9

O=c1[nH]c(=O)n([C@H]2C[C@H](O)[C@@H](CO)O2)cc1F [Floxuridine]
fractional viability (2uM): 1.25 | fractional viability (10uM): 1.14

C/C(=N\NC(=S)N1CCC1)c1ccccn1
fractional viability (2uM): 0.768 | fractional viability (10uM): 0.465

NC(=O)c1ncn([C@@H]2O[C@H](CO)[C@@H](O)[C@H]2O)c1N [Acadesine]
fractional viability (2uM): 1.04 | fractional viability (10uM): 0.819

CC(c1cc2ccccc2s1)N(O)C(N)=O (stereo not drawn) [Zileuton]
fractional viability (2uM): 1.17 | fractional viability (10uM): 1

CC1=C(C(=O)OC2CCCCC2)C(c2ccc([N+](=O)[O-])cc2)C2=C(CC(C)(C)CC2=O)N1 (stereo not drawn)
fractional viability (2uM): 0.841 | fractional viability (10uM): 0.799

C[C@@H]1C(=O)O[C@H]2C[C@@]34[C@H]5C[C@@H](C(C)(C)C)[C@]36[C@@H](OC(=O)[C@@H]6O)O[C@@]4(C(=O)O5)[C@]21O [Ginkgolide A]
fractional viability (2uM): 1.09 | fractional viability (10uM): 1.1
